Here are results for six molecules from patent publication US20240294594A1 (CYTUNE PHARMA, published 2024).

In the experiment the target is T1, IL-2/IL-15Rβγ (on cells) (UniProt P14784 27-551; P31785 23-369, limits assumed).
T1 sequence (looked up) 1: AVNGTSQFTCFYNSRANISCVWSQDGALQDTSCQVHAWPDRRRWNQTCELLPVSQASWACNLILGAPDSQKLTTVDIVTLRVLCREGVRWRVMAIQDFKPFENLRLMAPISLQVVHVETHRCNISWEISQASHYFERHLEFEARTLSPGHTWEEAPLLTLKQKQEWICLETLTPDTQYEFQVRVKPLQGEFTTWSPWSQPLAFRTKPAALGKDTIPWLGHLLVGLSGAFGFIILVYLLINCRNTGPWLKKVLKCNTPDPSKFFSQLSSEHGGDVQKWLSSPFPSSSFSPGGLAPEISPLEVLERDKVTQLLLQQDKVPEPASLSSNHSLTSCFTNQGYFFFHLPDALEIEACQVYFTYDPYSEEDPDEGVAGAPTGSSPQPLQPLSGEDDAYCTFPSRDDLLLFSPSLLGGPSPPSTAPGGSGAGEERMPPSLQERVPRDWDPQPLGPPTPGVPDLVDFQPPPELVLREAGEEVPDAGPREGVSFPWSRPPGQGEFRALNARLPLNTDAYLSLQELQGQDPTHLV
T1 sequence (looked up) 2: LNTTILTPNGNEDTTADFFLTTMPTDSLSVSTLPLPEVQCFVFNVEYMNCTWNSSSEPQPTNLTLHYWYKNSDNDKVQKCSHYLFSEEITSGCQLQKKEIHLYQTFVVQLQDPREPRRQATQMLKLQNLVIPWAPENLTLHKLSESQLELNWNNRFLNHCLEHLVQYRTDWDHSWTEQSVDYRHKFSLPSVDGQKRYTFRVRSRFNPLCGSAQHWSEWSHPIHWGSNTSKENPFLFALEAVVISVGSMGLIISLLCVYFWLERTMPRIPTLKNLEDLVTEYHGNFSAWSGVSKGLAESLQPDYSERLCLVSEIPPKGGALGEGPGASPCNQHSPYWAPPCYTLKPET
As to the kind of experiment: cell-based or functional assay.

B1: PEM LE-RLI-AD x1 (other)
heavy 1: QVQLVQSGVEVKKPGASVKVSCKASGYTFTNYYMYWVRQAPGQGLEWMGGINPSNGGTNFNEKFKNRVTLTTDSSTTTAYMELKSLQFDDTAVYYCARRDYRFDMGFDYWGQGTTVTVSSASTKGPSVFPLAPCSRSTSESTAALGCLVKDYFPEPVTVSWNSGALTSGVHTFPAVLQSSGLYSLSSVVTVPSSSLGTKTYTCNVDHKPSNTKVDKRV[not shown - human IgG4 Fc with S228P L235E T366W (EU numbers)]ITCPPPMSVEHADIWVKSYSLYSRERYICNSGFKRKAGTSSLTECVLNKATNVAHWTTPSLKCIRDPALVHQRPAPPSGGSGGGGSGGGSGGGGSGGNWVNVISDLAKIEDLIQSMHIDATLYTESDVHPSCKVTAMKCFLLELQVISLESGDASIHDTVENLIILANNSLSSNAQVTESGCKECEELEEKNIKEFLDSFVHIVQMFINTS
heavy 2: QVQLVQSGVEVKKPGASVKVSCKASGYTFTNYYMYWVRQAPGQGLEWMGGINPSNGGTNFNEKFKNRVTLTTDSSTTTAYMELKSLQFDDTAVYYCARRDYRFDMGFDYWGQGTTVTVSSASTKGPSVFPLAPCSRSTSESTAALGCLVKDYFPEPVTVSWNSGALTSGVHTFPAVLQSSGLYSLSSVVTVPSSSLGTKTYTCNVDHKPSNTKVDKRVESKYGPPCPPCPAPEFEGGPSVFLFPPKPKDTLMISRTPEVTCVVVDVSQEDPEVQFNWYVDGVEVHNAKTKPREEQFNSTYRVVSVLTVLHQDWLNGKEYKCKVSNKGLPSSIEKTISKAKGQPREPQVYTLPPSQEEMTKNQVSLSCAVKGFYPSDIAVEWESNGQPENNYKTTPPVLDSDGSFFLVSRLTVDKSRWQEGNVFSCSVMHEALHNHYTQKSLSLSLG
light: EIVLTQSPATLSLSPGERATLSCRASKGVSTSGYSYLHWYQQKPGQAPRLLIYLASYLESGVPARFSGSGSGTDFTLTISSLEPEDFAVYYCQHSRDLPLTFGGGTKVEIKRTVAAPSVFIFPPSDEQLKSGTASVVCLLNNFYPREAKVQWKVDNALQSGNSQESVTEQDSKDSTYSLSSTLTLSKADYEKHKVYACEVTHQGLSSPVTKSFNRGEC
Turning to B1, the “EC50 kit225 cells pM” value turned out to be 603 pM and the “Relative potency/kit225 cells” value is 8.5%.

B2: PEM LE-RLI-NA x1 (other)
heavy 1: QVQLVQSGVEVKKPGASVKVSCKASGYTFTNYYMYWVRQAPGQGLEWMGGINPSNGGTNFNEKFKNRVTLTTDSSTTTAYMELKSLQFDDTAVYYCARRDYRFDMGFDYWGQGTTVTVSSASTKGPSVFPLAPCSRSTSESTAALGCLVKDYFPEPVTVSWNSGALTSGVHTFPAVLQSSGLYSLSSVVTVPSSSLGTKTYTCNVDHKPSNTKVDKRV[not shown - human IgG4 Fc with S228P L235E T366W (EU numbers)]ITCPPPMSVEHADIWVKSYSLYSRERYICNSGFKRKAGTSSLTECVLNKATNVAHWTTPSLKCIRDPALVHQRPAPPSGGSGGGGSGGGSGGGGSGGNWVNVISDLKKIEDLIQSMHIDATLYTESDVHPSCKVTAMKCFLLELQVISLESGDASIHDTVEALIILANNSLSSNAQVTESGCKECEELEEKNIKEFLQSFVHIVQMFINTS
heavy 2: B1 heavy 2
light: B1 light
In the case of B2, the “EC50 kit225 cells pM” value was 14000 pM and the “Relative potency/kit225 cells” value stood at 0.36%.

B3: PEM LE-RLI-AD x2 (other)
heavy: QVQLVQSGVEVKKPGASVKVSCKASGYTFTNYYMYWVRQAPGQGLEWMGGINPSNGGTNFNEKFKNRVTLTTDSSTTTAYMELKSLQFDDTAVYYCARRDYRFDMGFDYWGQGTTVTVSSASTKGPSVFPLAPCSRSTSESTAALGCLVKDYFPEPVTVSWNSGALTSGVHTFPAVLQSSGLYSLSSVVTVPSSSLGTKTYTCNVDHKPSNTKVDKRV[not shown - human IgG4 Fc with changes]ITCPPPMSVEHADIWVKSYSLYSRERYICNSGFKRKAGTSSLTECVLNKATNVAHWTTPSLKCIRDPALVHQRPAPPSGGSGGGGSGGGSGGGGSGGNWVNVISDLAKIEDLIQSMHIDATLYTESDVHPSCKVTAMKCFLLELQVISLESGDASIHDTVENLIILANNSLSSNAQVTESGCKECEELEEKNIKEFLDSFVHIVQMFINTS
light: B1 light
Consider B3, for which the “EC50 kit225 cells pM” value turned out to be 122 pM and the “Relative potency/kit225 cells” value was 42%.

B4: PEM LE-RLI-NA x2 (other)
heavy: QVQLVQSGVEVKKPGASVKVSCKASGYTFTNYYMYWVRQAPGQGLEWMGGINPSNGGTNFNEKFKNRVTLTTDSSTTTAYMELKSLQFDDTAVYYCARRDYRFDMGFDYWGQGTTVTVSSASTKGPSVFPLAPCSRSTSESTAALGCLVKDYFPEPVTVSWNSGALTSGVHTFPAVLQSSGLYSLSSVVTVPSSSLGTKTYTCNVDHKPSNTKVDKRV[not shown - human IgG4 Fc with changes]ITCPPPMSVEHADIWVKSYSLYSRERYICNSGFKRKAGTSSLTECVLNKATNVAHWTTPSLKCIRDPALVHQRPAPPSGGSGGGGSGGGSGGGGSGGNWVNVISDLKKIEDLIQSMHIDATLYTESDVHPSCKVTAMKCFLLELQVISLESGDASIHDTVEALIILANNSLSSNAQVTESGCKECEELEEKNIKEFLQSFVHIVQMFINTS
light: B1 light
Consider B4, for which the “EC50 kit225 cells pM” value is 10700 pM and the “Relative potency/kit225 cells” value is 0.47%.

B5: PEM LE-RLI-DA x1 (other)
heavy 1: QVQLVQSGVEVKKPGASVKVSCKASGYTFTNYYMYWVRQAPGQGLEWMGGINPSNGGTNFNEKFKNRVTLTTDSSTTTAYMELKSLQFDDTAVYYCARRDYRFDMGFDYWGQGTTVTVSSASTKGPSVFPLAPCSRSTSESTAALGCLVKDYFPEPVTVSWNSGALTSGVHTFPAVLQSSGLYSLSSVVTVPSSSLGTKTYTCNVDHKPSNTKVDKRV[not shown - human IgG4 Fc with S228P L235E T366W (EU numbers)]ITCPPPMSVEHADIWVKSYSLYSRERYICNSGFKRKAGTSSLTECVLNKATNVAHWTTPSLKCIRDPALVHQRPAPPSGGSGGGGSGGGSGGGGSGGNWVNVISDLKKIEDLIQSMHIDATLYTESDVHPSCKVTAMKCFLLELQVISLESGDASIHATVENLIILANNSLSSNAQVTESGCKECEELEEKNIKEFLQSFVHIVQMFINTS
heavy 2: B1 heavy 2
light: B1 light
As to B5, the “EC50 kit225 cells pM” value worked out at 4480 pM and the “Relative potency/kit225 cells” value is 1.1%.

B6: PEM LE-RLI-DA x2 (other)
heavy: QVQLVQSGVEVKKPGASVKVSCKASGYTFTNYYMYWVRQAPGQGLEWMGGINPSNGGTNFNEKFKNRVTLTTDSSTTTAYMELKSLQFDDTAVYYCARRDYRFDMGFDYWGQGTTVTVSSASTKGPSVFPLAPCSRSTSESTAALGCLVKDYFPEPVTVSWNSGALTSGVHTFPAVLQSSGLYSLSSVVTVPSSSLGTKTYTCNVDHKPSNTKVDKRV[not shown - human IgG4 Fc with changes]ITCPPPMSVEHADIWVKSYSLYSRERYICNSGFKRKAGTSSLTECVLNKATNVAHWTTPSLKCIRDPALVHQRPAPPSGGSGGGGSGGGSGGGGSGGNWVNVISDLKKIEDLIQSMHIDATLYTESDVHPSCKVTAMKCFLLELQVISLESGDASIHATVENLIILANNSLSSNAQVTESGCKECEELEEKNIKEFLQSFVHIVQMFINTS
light: B1 light
Consider B6, for which the “EC50 kit225 cells pM” value turned out to be 1620 pM and the “Relative potency/kit225 cells” value is 3.1%.
